Assay results published in the supplement of paper PMC6089552.
Screen size: about 3,200 compounds; about 300 (9.4%) showed activity. This is a selection; strong and weak results do not stand in their true shares.

System: A673/TR/shEF
Assay: cell viability (LOESS-normalised, relative to median of negative controls) (log2 ratio); higher = more viable cells (less compound effect), active = hit call of the paper (over 3 MAD below the median)
Conditions: treatment time: 72 h
Procedure, shortened: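 A673/TR/shEF Ewing sarcoma cells (1,500 per well, 384-well plates) were grown with or without doxycycline to induce EWS-FLI1 shRNA knockdown, starting 24 h before compounds. Library compounds at two or more concentrations, with DMSO controls, were added for three days. Cell viability was read by CellTiter-Glo luminescence on an Envision reader, then LOESS-corrected per plate, divided by the median of negative controls and log2-transformed. Hits were wells at least three median absolute deviations from the median of all screened wells.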

[1] = 0.25 µM, library screen: screen1, EWS-FLI1 expression: high (no doxycycline)
[2] = 0.25 µM, library screen: screen1, EWS-FLI1 expression: low (doxycycline-induced shRNA knockdown)
[3] = 2.5 µM, library screen: screen1, EWS-FLI1 expression: high (no doxycycline)
[4] = 2.5 µM, library screen: screen1, EWS-FLI1 expression: low (doxycycline-induced shRNA knockdown)
[5] = 0.25 µM, library screen: screen2, EWS-FLI1 expression: high (no doxycycline)
[6] = 0.25 µM, library screen: screen2, EWS-FLI1 expression: low (doxycycline-induced shRNA knockdown)
[7] = 2.5 µM, library screen: screen2, EWS-FLI1 expression: high (no doxycycline)
[8] = 2.5 µM, library screen: screen2, EWS-FLI1 expression: low (doxycycline-induced shRNA knockdown)
[9] = 0.025 µM, library screen: screen2, EWS-FLI1 expression: high (no doxycycline)
[10] = 0.025 µM, library screen: screen2, EWS-FLI1 expression: low (doxycycline-induced shRNA knockdown)
[11] = 25 µM, library screen: screen2, EWS-FLI1 expression: high (no doxycycline)
[12] = 25 µM, library screen: screen2, EWS-FLI1 expression: low (doxycycline-induced shRNA knockdown)

Measured: cell viability (log2)

C[C@]12CC[C@H](O)C[C@H]1CC[C@@H]1[C@@H]2CC[C@]2(C)[C@@H](C3=CC(=O)OC3)[C@@H](O)C[C@]12O
inactive: [1] 0.0825 | [2] 0.115 | [3] 0.137 | [4] 0.0999

C[C@]12CCC(=O)C[C@@H]1CC[C@@H]1[C@@H]2CC[C@]2(C)C(=O)CC[C@@H]12
inactive: [1] 0.077 | [2] 0.117 | [3] 0.123 | [4] 0.0635

CN1CCc2cccc(Cl)c2CC1
inactive: [5] 0.121 | [6] 0.0417 | [7] 0.207 | [8] 0.058

NC(CCCCCP(=O)(O)O)C(=O)O (stereo not drawn)
inactive: [5] 0.0556 | [6] 0.14 | [7] 0.136 | [8] 0.152

COc1cc2c(cc1O)CCNC2C (stereo not drawn)
inactive: [1] -0.0405 | [2] -0.0233 | [3] 0.0226 | [4] 0.0664

COc1ccc2[nH]cc(CCN(C)C)c2c1
inactive: [5] 0.123 | [6] 0.116 | [7] 0.141 | [8] 0.0987

NCC(O)c1ccc(O)cc1 (stereo not drawn)
inactive: [1] 0.208 | [2] 0.108 | [5] 0.0858 | [6] 0.0915 | [3] 0.142 | [4] 0.103 | [7] 0.0525 | [8] -0.0117

COC(=O)N1CCN(C(=O)Cc2ccc(Cl)c(Cl)c2)C(CN2CCCC2)C1 (stereo not drawn)
inactive: [5] 0.113 | [6] 0.0667 | [7] 0.119 | [8] 0.106

CC(C)NC(C)Cc1ccc(I)cc1 (stereo not drawn)
inactive: [5] 0.0787 | [6] 0.0338 | [7] 0.129 | [8] 0.0526

COP(=O)(NC(C)=O)SC (stereo not drawn)
inactive: [1] -0.0123 | [2] -0.0415 | [3] 0.154 | [4] -0.0324

CCCN(CCC)C1Cc2cc(OC)c(OC)cc2C1
inactive: [5] 0.175 | [6] 0.0422 | [7] 0.111 | [8] 0.0467

O=c1c2ccccc2[se]n1-c1ccccc1
inactive: [1] 0.0739 | [2] -0.108 | [5] 0.129 | [6] 0.0598 | [3] 0.127 | [4] 0.00216 | [7] 0.153 | [8] -0.000469

C[N+]1(C)C2CCC1CC(OC(=O)C(CO)c1ccccc1)C2 (stereo not drawn)
inactive: [5] 0.176 | [6] 0.157 | [7] 0.136 | [8] 0.121

COc1ccc(C(=O)OC2CCC3(C)C4CCC5[C@]6(O)C[C@H](O)[C@@]7(O)C(CN8CC(C)CCC8[C@@]7(C)O)[C@]6(O)C[C@@]53O[C@]24O)cc1OC (stereo partly drawn)
inactive: [1] 0.0564 | [2] 0.0531 | [3] 0.0896 | [4] 0.133

C[Se]C[C@H](N)C(=O)O
inactive: [5] 0.11 | [6] 0.0416 | [7] 0.149 | [8] 0.0546

NCC(CC(=O)O)c1ccc(Cl)cc1 (stereo not drawn)
inactive: [1] 0.0966 | [2] 0.12 | [5] 0.221 | [6] 0.138 | [3] 0.123 | [4] 0.15 | [7] 0.124 | [8] 0.0836

Cc1ccccc1O
inactive: [1] 0.162 | [2] 0.0964 | [3] 0.189 | [4] 0.175

CN(C)[C@@H]1C(=O)C(C(N)=O)=C(O)[C@@]2(O)C(=O)C3=C(O)c4c(O)cccc4[C@@](C)(O)[C@H]3C[C@@H]12
active: [1] -0.127

CCCN1CCC[C@@H](c2cccc(C#N)c2)C1
inactive: [5] 0.21 | [6] 0.0529 | [7] 0.222 | [8] 0.141

CC1(C)[C@H](C(=O)O[C@H](C#N)c2cccc(Oc3ccccc3)c2)[C@@H]1C=C(Br)Br
inactive: 0.025 µM, library screen: screen1, EWS-FLI1 expression: high (no doxycycline) 0.0513 | 0.025 µM, library screen: screen1, EWS-FLI1 expression: low (doxycycline-induced shRNA knockdown) -0.0407 | [1] 0.047 | [2] 0.086 | [3] 0.112 | [4] 0.12 | 25 µM, library screen: screen1, EWS-FLI1 expression: high (no doxycycline) -0.0163 | 25 µM, library screen: screen1, EWS-FLI1 expression: low (doxycycline-induced shRNA knockdown) 0.0977

CC(NC(C)(C)C)C(=O)c1cccc(Cl)c1 (stereo not drawn)
inactive: 0.103 µM, library screen: screen3, EWS-FLI1 expression: high (no doxycycline) 0.0767 | 0.103 µM, library screen: screen3, EWS-FLI1 expression: low (doxycycline-induced shRNA knockdown) 0.0873 | [1] 0.182 | [2] 0.0913 | [5] 0.226 | [6] 0.117 | 0.308 µM, library screen: screen3, EWS-FLI1 expression: high (no doxycycline) 0.129 | 0.308 µM, library screen: screen3, EWS-FLI1 expression: low (doxycycline-induced shRNA knockdown) 0.062 | 0.926 µM, library screen: screen3, EWS-FLI1 expression: high (no doxycycline) 0.0592 | 0.926 µM, library screen: screen3, EWS-FLI1 expression: low (doxycycline-induced shRNA knockdown) 0.0977 | [3] 0.187 | [4] -0.00861 | [7] 0.0526 | [8] 0.0601 | 2.8 µM, library screen: screen3, EWS-FLI1 expression: high (no doxycycline) 0.0838 | 2.8 µM, library screen: screen3, EWS-FLI1 expression: low (doxycycline-induced shRNA knockdown) 0.0713 | 8.3 µM, library screen: screen3, EWS-FLI1 expression: high (no doxycycline) 0.0119 | 8.3 µM, library screen: screen3, EWS-FLI1 expression: low (doxycycline-induced shRNA knockdown) 0.0647 | 25 µM, library screen: screen3, EWS-FLI1 expression: high (no doxycycline) 0.131 | 25 µM, library screen: screen3, EWS-FLI1 expression: low (doxycycline-induced shRNA knockdown) 0.0511

NC(CP(=O)(O)O)C(=O)O (stereo not drawn)
inactive: [5] 0.0911 | [6] 0.12 | [7] 0.132 | [8] 0.122

CN1CCc2cc(O)cc3c2C1Cc1ccc(O)c(O)c1-3 (stereo not drawn)
inactive: [5] 0.248 | [6] 0.14 | [7] 0.197 | [8] 0.135

O=C1CC[C@@]2(O)[C@H]3Cc4ccc(O)c5c4[C@@]2(CCN3CC2CC2)[C@H]1O5
inactive: [1] 0.0954 | [2] 0.126 | [5] 0.163 | [6] 0.116 | [3] 0.095 | [4] 0.0763 | [7] 0.183 | [8] 0.128

NC(=O)c1cc([N+](=O)[O-])cc([N+](=O)[O-])c1
inactive: [9] 0.148 | [10] 0.069 | [1] 0.071 | [2] 0.00829 | [5] 0.134 | [6] 0.0542 | [3] 0.16 | [4] 0.158 | [7] 0.195 | [8] 0.121 | [11] 0.244 | [12] 0.114

COc1ccc2c(c1O)-c1c(OC)c(OC)cc3c1[C@H](C2)N(C)CC3
inactive: [1] -0.01 | [2] -0.0109 | [3] 0.111 | [4] 0.131

C[N+]1(C)[C@H]2CC(OC(=O)C(CO)c3ccccc3)C[C@H]1[C@H]1O[C@H]12 (stereo partly drawn)
inactive: [5] 0.258 | [6] 0.0872 | [7] 0.133 | [8] -0.00973

C[C@@H]1CC[C@@]2(NC1)O[C@H]1C[C@H]3[C@@H]4CC=C5C[C@@H](O)CC[C@]5(C)[C@H]4CC[C@]3(C)[C@H]1[C@@H]2C
inactive: [9] 0.0804 | [10] 0.071 | [1] 0.101 | [2] 0.14 | [5] 0.194 | [6] 0.0802 | [3] 0.13 | [4] 0.0856 | [7] 0.106 | [8] 0.133 | [11] 0.0875 | [12] 0.0211

Cc1ccccc1CN1CCN(Cc2ccc(F)cc2)CC1
inactive: [1] 0.0915 | [2] 0.13 | [3] 0.113 | [4] 0.0962

COc1cc2c(cc1OC)[C@H]1C(=O)c3ccc4c(c3O[C@H]1CO2)C[C@@H](C(C)C)O4
active: [1] -1.56 | [2] -0.67 | [3] -2.2 | [4] -0.747

CCCN(CCC)C(=O)Cc1c(-c2ccc(Cl)cc2)nc2c(Cl)cc(Cl)cn12
inactive: [5] 0.223 | [6] 0.162 | [7] 0.087 | [8] 0.137

NNCc1cccc(O)c1
inactive: [1] 0.103 | [2] 0.0544 | [5] 0.129 | [6] 0.00623 | [3] 0.142 | [4] 0.142 | [7] 0.151 | [8] 0.0221

CC[C@@]1(O)C[C@H](OC2C[C@@H](N(C)C)C(O)C(C)O2)c2c(cc3c(c2O)C(=O)c2c(O)ccc(O)c2C3=O)[C@H]1C(=O)OC (stereo partly drawn)
active: [3] -0.221
inactive: [1] 0.0817 | [2] 0.158 | [4] 0.00788

C[C@@H]1C[C@H]2CC(=O)[C@H]3CCCN4CCC[C@H]2[C@]34C1
inactive: [1] 0.103 | [2] 0.0455 | [3] 0.108 | [4] 0.0845

CCCN(CCC)[C@@H]1CCc2c(F)ccc(O)c2C1
inactive: [5] 0.13 | [6] 0.0763 | [7] 0.181 | [8] 0.101

N[C@@H]1C[C@H]1c1ccccc1
inactive: [5] -0.0136 | [6] 0.0758 | [7] 0.095 | [8] 0.0498

CC1(C)C2CC(=O)[C@]3(C)C(CC[C@@]4(C)[C@H](c5ccoc5)OC(=O)C5OC543)[C@@]2(C)[C@@H](O)C[C@H]1O (stereo partly drawn)
inactive: [1] 0.13 | [2] 0.163 | [3] 0.0438 | [4] 0.227

C[C@@H]1O[C@@H](O[C@H]2CC[C@]3(C=O)[C@H]4CC[C@]5(C)[C@@H](C6=CC(=O)OC6)CC[C@]5(O)[C@@H]4CC[C@]3(O)C2)[C@H](O)[C@H](O)[C@H]1O
inactive: [1] 0.0221 | [2] 0.0427
active: [3] -3.36 | [4] -3.89

COc1cc(CC(C)N)c(OC)cc1I (stereo not drawn)
inactive: [5] 0.14 | [6] 0.0726 | [7] 0.151 | [8] 0.083

CN[C@@H](C)[C@@H](O)c1ccccc1
inactive: [1] 0.118 | [2] 0.0568 | [3] 0.122 | [4] 0.201

O.O=C1OC2(c3cc(Br)c([O-])cc3Oc3c2cc(Br)c([O-])[c]3[Hg])c2ccccc21.[Na+].[Na+] (stereo not drawn)
inactive: [1] 0.113 | [2] 0.0666 | [3] 0.139 | [4] 0.132

CCOP(=S)(OCC)SCSCC
inactive: [1] 0.102 | [2] -0.0178 | [3] 0.0726 | [4] 0.115

CCC(C)C(=O)O[C@@H]1C[C@@]2(C)[C@H](c3ccoc3)OC(=O)CC23OC2(C)OC14C1(C)[C@@H](CC(=O)OC)C5(C)CC1(O)C(O)([C@@H](OC(C)=O)C43O2)[C@H]5OC(=O)C1(C)OC1C (stereo partly drawn)
inactive: [1] 0.0892 | [2] 0.0664 | [3] 0.0941 | [4] 0.178

Cc1sc2ccccc2c1CC1=NCCN1
inactive: [5] 0.233 | [6] 0.099 | [7] 0.201 | [8] 0.0637

C[N+](C)(C)CCOC(=O)CBr
inactive: [5] 0.173 | [6] 0.097 | [7] 0.0892 | [8] 0.139
